Source: PubChem BioAssay AID686971 (National Center for Advancing Translational Sciences (NCATS), 2013)
In all, about 360,000 compounds went through this assay and about 7,500 (2.1%) were called active. Inconclusive means that the source gave no clear call. Such entries were picked first, then a sample of the others. Calls follow the shape of the dose curve; as a rule, active = well fitted cell-killing curve with a large enough effect; inconclusive = small, poorly fitted or top-dose-only effect, or effect the other way, or another doubt; inactive = no such curve, though single readings can be large or run the other way. Potencies of inconclusive entries are left out as doubtful fits.

Assay: qHTS for induction of synthetic lethality in tumor cells producing 2HG: qHTS for the HT-1080-IDH1KD cell line;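 as to activity, negative = toxicity: 0% = DMSO wells and -100% = cell-free medium wells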
Conditions: HT-1080 IDH1 knockdown viability, ATP luminescence, 48 h; activity, negative = toxicity: at 46.1 µM (top of the series) unless noted
Procedure, shortened: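 IDH1KD HT-1080 cells, 750/well, RPMI + 5% FBS; compound pinned after 2 h settling; 48 h, 37 °C; CellTiter-Glo luminescence; % activity normalised to DMSO and no-cell wells; curves fitted, classed by r2 and efficacy.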
Potency is read from the fitted curve at half-maximal effect; tags tell the direction and shape of the fitted curve.

SMILES	Potency	activity, negative = toxicity
Nc1ccc(Oc2ccc([N+](=O)[O-])cc2[N+](=O)[O-])cc1	inconclusive [cytotoxic, single point]	–
COc1cc2ccccc2cc1C(=O)Nc1ccccc1Cl	inconclusive [cytotoxic, single point]	–
O=C(Nc1ccccc1F)C(c1ccccc1)c1ccccc1	–	inconclusive: -11.7% [cytotoxic]
COc1ccccc1-c1sc2cc3c(cc2c1-c1ccc(OCCN2CCCCC2)cc1)OCO3	inconclusive [cytotoxic, single point]	–
COc1ccc(CNC(=O)CCNS(=O)(=O)c2cc(Br)cnc2N)cc1	–	inactive: 0.935%
CCCC(=O)Nc1ccc(NC(=S)NC(=O)c2ccccc2[N+](=O)[O-])cc1	inconclusive [cytotoxic, single point]	–
COc1ccc([C@H]2/C=C\CN(C(=O)c3ccc(C)cc3)[C@@H](C)C(=O)N2Cc2ccc(F)cc2)cc1	–	inconclusive: -31% [cytotoxic]
O=C(O)c1ccc(-c2nc(-c3ccccc3)cs2)cc1	–	inconclusive: -2.01% [cytotoxic]
CC1=C/C(=C(/c2cc(C)c(O)c(Br)c2)c2ccccc2S(=O)(=O)O)C=C(Br)C1=O	inconclusive [cytotoxic, single point]	–
CCCC1=Nc2cc(C(=O)NCCCOC(C)C)ccc2Sc2ccccc21	active: 18.4 µM	–
COc1cc(CN(C)CC2CCCN(CCc3cccc(C(F)(F)F)c3)C2)ccc1O (stereo unspecified)	inconclusive [cytotoxic, partial curve]	–
CCCCCCCCN1C(=O)[C@H](CC(=O)NCCCC)C[C@@]2(C(=O)OC)CC(C)(C)CC=C12	inconclusive [cytotoxic, single point]	–
COC(=O)C1=CN(c2ccc(OC)cc2)C(N)=C(C#N)C1c1ccccc1F (stereo unspecified)	inconclusive [cytotoxic, single point]	–
COc1cc(OC)c(-c2nn3c(C4CCCCC4)nnc3s2)cc1OC	inconclusive [cytotoxic, single point]	–
CC(=O)c1c(C)[nH]c(C(=O)Nc2cccc3ccccc23)c1C	–	inactive: -3.27%
COc1cccc(OC)c1OCC(C)CNCC1CCCO1 (stereo unspecified)	–	inactive: -3.69% [at 9.24 µM]
CCNC(=S)NNC(=O)c1csc2c1CCCC2	inconclusive [cytotoxic, single point]	–
COc1ccc(C=C2CCc3ccccc3C2=O)cc1	inconclusive [cytotoxic, single point]	–
O=C(CN1C(=O)NC2(CCCCC2)C1=O)Nc1ccc2[nH]c(=O)[nH]c2c1	–	inactive: 9.42%
CC(Oc1ccccc1)C(=O)N/N=C/c1ccccn1 (stereo unspecified)	–	inactive: -15.1%
C=CCn1c(SCC(=O)Nc2sccc2C(N)=O)nc2sc(CC)cc2c1=O	inconclusive [cytotoxic, single point]	–
CC(=O)N1c2ccc(S(=O)(=O)NCCC(=O)NCCc3ccc(Cl)cc3)cc2CC1C (stereo unspecified)	–	inactive: -10.2%
COc1ccc(C(=O)c2c(C(F)(F)F)oc3c2C(=O)c2ccccc2C3=O)cc1OC	inconclusive [cytotoxic, single point]	–
O=c1cc(-c2cccc(F)c2)[nH]c2ccccc12	active: 1.46 µM	–

SMILES	Potency	activity, negative = toxicity
CC(C)NS(=O)(=O)c1ccc(NC(=O)C(C)Oc2ccc(C(=O)c3ccccc3)cc2)cc1 (stereo unspecified)	inconclusive [cytotoxic, single point]	–
COc1ccc(C(=O)N2CCN(c3ccc(C)cc3)CC2)cc1OC	–	inactive: 0.977%
CC(C)(C)Nc1nc2nonc2nc1NC(C)(C)C	inconclusive [cytotoxic, single point]	–
O=C(N/C(=C\c1ccc(Br)cc1)c1nc2ccccc2[nH]1)c1ccco1	–	inactive: -23.3%
Cc1ccnc(NC(=O)C2CC(=O)N(Cc3ccccc3)C2)c1 (stereo unspecified)	–	inactive: 14.8%
O=c1oc2c(O)c(O)cc3c(=O)oc4c(O)c(O)cc1c4c23	inconclusive [rising, full curve, poor fit]	–
Cc1cccc(OCCNc2cc(N3CCOCC3)ccc2[N+](=O)[O-])c1	inconclusive [cytotoxic, single point]	–
O=c1c2c(nc3c(-c4ccc(Cl)cc4)c[nH]n13)CCC2	–	inconclusive: -17.5% [cytotoxic]
Cc1cnc(NC(=O)c2ccc3c(c2)OCCO3)s1	active: 7.31 µM	–
COc1ccc(C2CC(c3ccccc3Br)=NN2c2ccc(S(N)(=O)=O)cc2)cc1 (stereo unspecified)	inconclusive [cytotoxic, single point]	–
O=c1c2sccc2n(Cc2cccc(F)c2)c(=O)n1-c1ccc(F)cc1	inconclusive [cytotoxic, partial curve, poor fit]	–
COc1cc(/C=N/NC(=O)COc2cccc(F)c2)ccc1OS(=O)(=O)c1ccc(C)cc1	inconclusive [cytotoxic, single point]	–
Cc1ccc(NC(=O)c2sccc2SCc2cccc(C(F)(F)F)c2)cc1	inconclusive [cytotoxic, single point]	–
COc1cc2nc(Nc3ccc(C)c(C)c3)nc(N)c2cc1OC	inconclusive [cytotoxic, single point]	–
O=C(CCN1CCOCC1)N1CCc2c([nH]c3ccccc23)C1c1cccc(Cl)c1 (stereo unspecified)	inconclusive [cytotoxic, partial curve]	–
O=Nc1nc2ncccn2c1-c1ccccc1	active: 11.6 µM	–
COc1ccc(-n2nnnc2S(=O)(=O)Cc2ccc(C(=O)O)cc2)cc1	active: 7.94 µM	–
NS(=O)(=O)c1ccc(NC(=O)COC(=O)/C(=C/c2cccs2)c2cccs2)cc1	inconclusive [cytotoxic, partial curve, poor fit]	–
O=C(N/N=C/c1ccc2c(c1)OCO2)c1ccc(COCC(F)(F)C(F)F)cc1	active: 1.3 µM	–
COC(=O)C1=C(N)Oc2cc(C)n(CC3CCCO3)c(=O)c2C1c1ccc(Cl)c(Cl)c1 (stereo unspecified)	inconclusive [cytotoxic, single point]	–
CCCc1cc(C(=O)Cc2ccc(F)cc2)c(O)cc1O	active: 20.6 µM	–
Cc1cc(F)ccc1-c1cc(C(=O)Nc2ccccc2)[nH]n1	–	inactive: -17.4%
COc1ccc(C(=O)N2CCN(c3cccc(Cl)c3)CC2)cc1S(=O)(=O)NC1CC1	inconclusive [cytotoxic, single point]	–
CCOC(=O)C(CC)(CC)C(=O)/C=C/c1ccc(Br)cc1	inconclusive [cytotoxic, single point]	–

SMILES	Potency	activity, negative = toxicity
COc1ccc2c(c1)O/C(=C\c1ccco1)C2=O	–	inactive: 10.1%
O=C(N/N=C/C(Br)=C/c1ccccc1)NC1CCCCC1	inconclusive [cytotoxic, single point]	–
C[C@H](NC(=O)C1CC(=O)N(c2ccc3c(c2)OCCO3)C1)C(=O)NCc1ccco1 (stereo partly specified)	–	inactive: 0.803%
CC1(C)Cc2c(sc(NC(=O)c3ccc4c(c3)OCCO4)c2C(N)=O)C(C)(C)N1	inconclusive [cytotoxic, single point]	–
CCc1nc(N2CCC(C)CC2)c2oc3ccccc3c2n1	inconclusive [cytotoxic, single point]	–
COc1ccc(-c2cc3nc(C)cc(N4CC(C)CC(C)C4)n3n2)cc1 (stereo unspecified)	–	inactive: -1.59% [at 9.24 µM]
CC(C)OC(=O)c1ccc(NCc2cc(O)ccc2O)cc1Cl	active: 23.1 µM	–
COC(=O)c1ccc(COc2ccccc2/C=C(\C#N)C(=O)Nc2c(C)cc(C)cc2C)cc1	active: 18.4 µM	–
CCOC(=O)c1cc(-c2ccccc2)sc1NC(=O)COC(=O)c1cccc(S(N)(=O)=O)c1	inconclusive [cytotoxic, full curve]	–
COc1ccc(/C=N/NC(=O)CN2CCSCC2)cc1C	inconclusive [rising, partial curve]	–
COc1cc(CCC(=O)OCC(=O)Nc2ccc(F)cc2F)cc(OC)c1OC	–	inactive: 18.7%
COC(=O)C1=CN(CCOC23CC4CC(CC(C4)C2)C3)C=C(C(=O)OC)C1c1ccsc1	inconclusive [cytotoxic, partial curve]	–
Oc1ccc(-n2nnnc2SCc2c(F)cccc2Cl)cc1	inconclusive [cytotoxic, single point]	–
Cc1ccc(NC(=S)N(CCN(C)C)C(C)c2ccco2)cc1Cl (stereo unspecified)	–	inactive: -4.93%
COc1ccccc1-c1cc(C(F)(F)F)nc(S(=O)(=O)CCCC(=O)Nc2cc(C)on2)n1	active: 4.11 µM	–
CCCCCCn1c(SCC(=O)Nc2cc(C)on2)nc2ccccc2c1=O	inconclusive [cytotoxic, full curve]	–
COc1ccc(-n2nc(C(=O)NCC(=O)Nc3ccccn3)c3ccccc3c2=O)cc1	inconclusive [cytotoxic, single point]	–
C=CCOC(=O)c1sc(NC(=O)c2ccc(OC)cc2)nc1C	active: 1.84 µM	–
CC(=O)N1c2ccccc2N(Cc2ccc(C)cc2C)C(=O)C1(C)C	active: 16.4 µM	–
O=C(c1ccc(N2CCOCC2)c([N+](=O)[O-])c1)N1CCCC(C(F)(F)F)C1 (stereo unspecified)	–	inactive: 13.6%
CCCc1nnc(NC(=O)CCC(=O)N2CCN(S(=O)(=O)c3ccc(F)cc3)CC2)s1	inconclusive [rising, partial curve]	–
O=C1CCCN2N=C(SCC(=O)Nc3cccc(C(F)(F)F)c3)SC2=N1	inconclusive [cytotoxic, single point]	–
Cn1cnc([N+](=O)[O-])c1Oc1ccc2ccccc2c1	inconclusive [cytotoxic, single point]	–
